Measured values taken from a collection of fitness landscapes (doi:10.1016/j.celrep.2020.107928).
Whole data set: some 81,000 sequences, median “one-hybrid fitness for binding parS DNA” near -0.17, cut for the highest 2% near 0.51. Some of the results follow.

B1: Caulobacter ParB omega fusion; a variant is named by its letters at X, in order, B8GW30 (parent)
chain: MESVVVGEPGMSEGRRGLGRGLSALLGEVDAAPAQAPGEQLGGSREAPIEILQRNPDQPRRTFREEDLEDLSNSIREKGVLQPILVRPSPDTAGEYQIVAGERAWRAAQRAGLKTVPIMVRELDDLAVLEIGIIENVQRADLNVLEEALSYKVLMEKFERTQENIAQTIGKSXSHVANXMRLLXLPDEVQSYLVSGELTAXHARAIAAAADPVALAKQIIEGGLSVRETEALARKAPNLSAGKSKGGRPPRVKDTDTQALESDLSSVLGLDVSIDHRGSTGTLTITYATLEQLDDLCNRLTRGI

Variants of: B1
Assay: one-hybrid fitness for binding parS DNA (scaled: cognate 1, non-cognate 0); higher = stronger binding
Conditions: with parS DNA site
Procedure, shortened: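 Fitness here means the log change in variant-to-wild-type read ratio between plasmids sequenced before and after selection. That scale was set so cognate equals 1 and non-cognate equals 0. The selection was a bacterial one-hybrid screen of Caulobacter ParB libraries, four specificity codons randomised, in E. coli USO carrying a HIS3 reporter with the site 19 bp from the promoter, grown 48 hours at 37°C on M9-minus-histidine with 0.1 mM IPTG and 5 mM 3-AT.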

one-hybrid fitness for binding parS DNA, 0.251:
RNLN

one-hybrid fitness for binding parS DNA, 0.769:
RWSG

one-hybrid fitness for binding parS DNA, 0.544:
RWVC

one-hybrid fitness for binding parS DNA, 0.37:
RMSM

one-hybrid fitness for binding parS DNA, 0.89:
RSVG

one-hybrid fitness for binding parS DNA, 0.223:
RKPA

one-hybrid fitness for binding parS DNA, 0.982:
RVAC

one-hybrid fitness for binding parS DNA, ≤ 0.2:
HREW
DNSE
AGTK
HGSI
CQNC
KRWL
QLCV
GINK
PVQR
LYVM
QKIY
STPH
QTWP
DQLY
EARL
TWGG
AMAP
PCQY
QITV
YLHR
QTAF
WKMR
NSTS
IQNF
KVGA
QNQP
LHSG
LHFG
DYYR
YALV
ACRK
CQVT
YVYV
TISY
VAYM
SQAC
LRIR
PRCT
GAER
CTSN
DDFT
AVST
EGTK
KNVT
TWQC
TRFK
MGLR
NQKN
HNGL
HRLV
QWQS
SAIC
RTMH
QVIY
AGHT
STFG
PYAY
GAGS
LQMS
WYGG
VRWG
MTTW
PHKQ
AHWR
KQWS
MNHY
KHCS
QYST
QTWH
MYIT
GYDF
WDYS
GLLV
IRSG
TNRP
HQGR
GSTR
SHKT
PIPK
QRDR
GNCL
TGVW
YHNH
SGKV
SHSG
PWPN
VPQC
HWFC
HHDG
GSNY
VISM
RHNP
KAGR
MIHT
IWRS
VHIS
GPLA
LHFI
PCFM
CIMK
TYYL
LSAN
QRCR
SFMW
VLLR
VHMW
RFNQ
IRGS
TGRV
SSAI
IQPS
VDPI
TLLP
YYST
QHWD
GLWV
LDTT
HICL
ASTE
PTHW
SRNA
PTCM
TMHT
PTPA
FMVC
WCTT
GHLC
FWAC
TSVT
APVS
SDTG
CVWR
QYGD
YVCG
ETQT
YTCS
NLTG
PPYG
MTLK
HRDL
PNPA
THVS
NMRT
YAYC
CRDG
MPAS
YAHG
GQCT
MYSA
PHDT
RKTM
ETMM
MDEY
CLHR
WDER
PLHF
MPPM
KGGA
VEDA
LHPG
YSQN
KMQR
GEKS
RRGD
QVVR
VMYL
PFEC
QMED
RQKP
QWGT
ETSS
IFGS
CRAY
WTDG
PSGG
QNVV
QMVF
VVRY
VGTG
GPED
PTCC
SDPR
IYQL
NWYS
CMHF
LDIW
RVMQ
CIVC
QLRY
WADL
EVVT
PVMQ
GGSW
QWPD
LVDM
WRLS
IRSQ
HNMS
LVTN
HMTR
RWAP
PITM
WSRM
FNRC
GMTC
NKNA
MHKM
GKLA
MSSG
SPQN
HMPV
GWSD
ESNR
LVRN
QGTM
IRTL
DYSK
LPKC
CLLT
RFFP
LWLV
TQSW
TFAN
AWER
AGVR
QEMS
CQSR
PVIA
PFLV
MLLL
TPNY
YIGD
NSSY
TIRK
GGER
QDHS
LAIT
WRMG
CGEE
DARA
IYWI
PYRH
SKSL
SGGG
FVST
HHSY
TRLC
LWPF
SGPY
LLEF
EVTW
SLFC
TTLD
SPIL
NKRS
HCGC
QACD
IQCR
VEER
HNTY
GIRE
DTLR
DPLC
GMLK
EGKT
SVNT
ECST
RYMW
RRGW
HIPG
AQHR
REKF
MCTV
VCMR
DSAS
TLYT
NEVP
QASF
LSNT
TLLM
PFDT
SIKP
IHSN
WVWC
LVNR
LPQR

one-hybrid fitness for binding parS DNA, 0.985:
RTWC

one-hybrid fitness for binding parS DNA, 0.978:
RYYS

one-hybrid fitness for binding parS DNA, 0.925:
RFHC

one-hybrid fitness for binding parS DNA, 0.257:
RYVM

one-hybrid fitness for binding parS DNA, 0.928:
RKSG

one-hybrid fitness for binding parS DNA, 1:
RASS

one-hybrid fitness for binding parS DNA, 0.735:
RMKA

one-hybrid fitness for binding parS DNA, 0.946:
RHTC

one-hybrid fitness for binding parS DNA, 0.307:
RNPT

one-hybrid fitness for binding parS DNA, 0.235:
RMGP

one-hybrid fitness for binding parS DNA, 0.45:
RDKS

one-hybrid fitness for binding parS DNA, 0.828:
RTRY

one-hybrid fitness for binding parS DNA, 0.374:
RMHM
